This assay deals with Plasmodium falciparum NF54 stage V gametocytes. Briefly: viability index relative to DMSO control (fraction); higher = less gametocyte killing. Conditions: 2.5 µM, incubation time: 72 h. The method in brief: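 Viability index is the count of red-stained particles in a well divided by the plate mean of solvent-only wells. Particles of 20–70 µm2 were counted in one imaged field per well after one to two hours with 3 µl of 2.5 µM MitoTracker Red CMXRos and 0.13% saponin. Before staining, P. falciparum NF54 stage V gametocytes in serum-free medium (0.75% gametocytemia, 1.25% hematocrit, 10 µl, 1,536-well plates) were kept with compound at 2.5 µM for 72 hr at 37°C under low oxygen.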

Setting [1] is: library set: Broad Institute DOS.

± gives the uncertainty stated by the source. The full ranking holds about 9,900 compounds; the median of “viability index relative to DMSO control” is about 1, and the lowest 2% start at about 0.85. This is one part of the list.

`COc1ccc(C#Cc2ccc([C@H]3[C@H]4CN(C(=O)NC(C)C)CC(=O)N4[C@H]3CO)cc2)cc1` returned a viability index under setting [1] of 1.06 ± 0.017. Same read-out and setting: next, `O=C(C1CCOCC1)N1CC(=O)N2[C@@H](CO)[C@H](c3ccc(C#CC4CCCCC4)cc3)[C@@H]2C1`: 1.09 ± 0.032. The same measure, in the same setting: next, `COCCNC(=O)C[C@@H]1CC[C@@H]2[C@H](COC[C@H](O)CN2C(=O)c2cc(Cl)cc(Cl)c2)O1`: 1.125 ± 0.01; `O=C(C[C@@H]1C=C[C@H](NC(=O)Cc2ccccn2)[C@@H](CO)O1)NCCc1ccncc1`: 1.04 ± 0.022. The same measure, in the same setting: next, `CCC(=O)Nc1ccc2c(c1)OC[C@H](C)N(Cc1ccccc1)C[C@H](C)[C@@H](OC)CN(C)C2=O`: 1.037 ± 0.0097; `CNC(=O)C[C@H]1CC[C@@H]2[C@H](COC[C@H](O)CN2Cc2ccccc2F)O1`: 1.09 ± 0.057.

`COCCNC(=O)C[C@H]1CC[C@@H]2[C@H](COc3ccc(NS(=O)(=O)c4ccc(Cl)cc4)cc3C(=O)N2C)O1` registered a viability index under setting [1] of 1.17 ± 0.058. On the same count and under the same terms, next, `CCCC#Cc1ccc([C@@H]2[C@@H](CO)N(C(=O)CN3CCOCC3)[C@H]2C#N)cc1`: 1.1 ± 0.13; `C/C=C/c1cnc2c(c1)C(=O)N([C@H](C)CO)C[C@@H](C)[C@H](CN(C)CC1CCOCC1)O2`: 1.04 ± 0.027.

Take `COc1ccc2c3c([nH]c2c1)[C@H](CO)N(C[C@]31CN(Cc2cccnc2)C1)C(=O)CC1CC1`: the viability index under setting [1] amounted to 1.06 ± 0.061.

The molecule `C[C@@H]1CCCCO[C@H](CN(C)C(=O)Cc2ccccc2)[C@H](C)CN([C@H](C)CO)C(=O)c2cc(NS(C)(=O)=O)ccc2O1` had a viability index under setting [1] of 1.11 ± 0.053. The same measure, in the same setting: next, `O=C(C[C@@H]1CC[C@H]2[C@@H](COC[C@@H](O)CN2C(=O)Nc2cccc(F)c2)O1)NCCCN1CCOCC1`: 1.01 ± 0.0084; `O=C(Nc1cc(F)ccc1F)N[C@@H]1CC[C@@H](CCn2cc(C3CCCCC3)nn2)O[C@H]1CO`: 1.1 ± 0.046. Still for that read-out and setting: next, `CN1C(=O)c2cc(NC(=O)Nc3ccccc3F)ccc2OC[C@@H]2O[C@H](CC(=O)NCCc3ccncc3)CC[C@H]21`: 0.9776 ± 0.008; `CS(=O)(=O)N1C[C@@H]2N[C@H](C1)[C@@H]2c1ccc(-c2ccccc2)cc1`: 0.706 ± 0.03. Still for that read-out and setting: next, `CN1C(=O)c2cc(NC(=O)c3ccc4c(c3)OCO4)ccc2OC[C@H]2O[C@@H](CC(=O)O)CC[C@@H]21`: 1.11 ± 0.071. Take `CN1C(=O)c2cc(NC(=O)Cc3cccs3)ccc2OC[C@H]2O[C@@H](CC(=O)NCc3ccc(-c4ccccc4)cc3)CC[C@@H]21`: the viability index under setting [1] was determined as 1.07 ± 0.054. The same measure, in the same setting: next, `CNC[C@@H]1Oc2cc(C#Cc3ccccc3OC)ccc2S(=O)(=O)N([C@@H](C)CO)C[C@H]1C`: 0.886 ± 0.063; `COc1cccc(NC(=O)N2C[C@@H](O)COC[C@H]3O[C@@H](CC(=O)N(C)C)CC[C@@H]32)c1`: 1.04 ± 0.02; `C/C=C/c1ccc([C@H]2[C@H]3CN(C(=O)c4ccncc4)CC(=O)N3[C@H]2CO)cc1`: 0.976 ± 0.087.

`Cc1noc(C)c1NC(=O)N1C[C@@H](O)COC[C@@H]2O[C@H](CC(=O)NCC3CC3)CC[C@H]21` had a viability index under setting [1] of 1.06 ± 0.02.

For the molecule `COc1ccc(S(=O)(=O)N2CC[C@@H]3[C@@H](CO)Nc4ccc(Br)cc4[C@@H]32)cc1`, the viability index under setting [1] amounted to 0.97489 ± 0.00036. On the same count and under the same terms, next, `COc1ccc(NC(=O)N2C[C@H](O)COC[C@@H]3O[C@@H](CC(=O)NCc4ccncn4)CC[C@H]32)cc1`: 1.076 ± 0.0021; `COc1cccc(S(=O)(=O)N2C[C@@H](O)COC[C@H]3O[C@H](CC(=O)N4CCN(c5ccccc5)CC4)CC[C@@H]32)c1`: 1.07 ± 0.066; `CCS(=O)(=O)N1C[C@@]2(C1)CN([C@H](CO)c1[nH]c3cc(OC)ccc3c21)C(=O)Cc1ccccn1`: 0.986 ± 0.062.

Turning to `C[C@@H]1CN([C@@H](C)CO)C(=O)c2cc(NC(=O)Cc3ccccc3)ccc2O[C@@H](C)CCCCO[C@H]1CN(C)Cc1ccncc1`, under setting [1], the viability index came to 1.1 ± 0.063.

Consider `COc1cccc(C#Cc2ccc([C@H]3[C@@H](CO)N4C(=O)CN(C(=O)Cc5ccccc5)C[C@H]34)cc2)c1`, for which the viability index (library set: Broad Institute Blood Stage) is 0.778 ± 0.047. In the case of `COc1cccc(NC(=O)N2CC(=O)N3[C@@H](CO)[C@H](c4ccc(C5=CCCCC5)cc4)[C@@H]3C2)c1`, the viability index under setting [1] was 1.05 ± 0.037.

`COc1ccc2c3c([C@@H](CO)N(C[C@]33CCN(CC3)C(=O)c3ccncc3)C(=O)C3CCOCC3)n(C)c2c1` gave a viability index under setting [1] of 1.02 ± 0.022. Take `N#C[C@H]1[C@H](c2ccc(C3=CCCCC3)cc2)[C@H](CO)N1C(=O)CN1CCOCC1`: the viability index under setting [1] amounted to 1.13 ± 0.046. `Cc1noc(C)c1NC(=O)Nc1ccc2c(c1)C(=O)N([C@@H](C)CO)C[C@@H](C)[C@@H](CN(C)Cc1ccc3c(c1)OCO3)OCCCC[C@H](C)O2` gave a viability index under setting [1] of 1.14 ± 0.22. Same read-out and setting: next, `CC(C)C(=O)Nc1ccc2c(c1)C(=O)N(C)[C@H]1CC[C@H](CC(=O)NCCc3ccccc3)O[C@@H]1CO2`: 1.1 ± 0.11. Under setting [1], `COc1cccc(S(=O)(=O)Nc2ccc3c(c2)C(=O)N(C)[C@@H]2CC[C@@H](CC(=O)NCC4CCCCC4)O[C@H]2CO3)c1` had a viability index of 1.06 ± 0.046. For the molecule `O=C(Nc1ccc(F)cc1)N1CC(=O)N2[C@@H](CO)[C@@H](c3ccc(-c4cccc(F)c4)cc3)[C@@H]2C1`, under setting [1], the viability index was found to be 0.978 ± 0.032. Same read-out and setting: next, `CN(C)C(=O)C[C@@H]1C[C@H]2c3cc(NC(=O)Nc4ccc(F)cc4)ccc3O[C@H]2[C@@H](CO)O1`: 1.076 ± 0.0015; `C[C@@H]1CN([C@H](C)CO)C(=O)c2cc(NC(=O)C3CCCCC3)ccc2O[C@H]1CN(C)Cc1ccc2c(c1)OCO2`: 1.03 ± 0.0061; `CC(C)NC(=O)N1CC2(C1)[C@@H](c1ccccc1)[C@@H](CO)N2C(=O)C1CCOCC1`: 1.06 ± 0.022. `O=C(C[C@@H]1C[C@@H]2c3cc(NC(=O)c4ccc5c(c4)OCO5)ccc3O[C@@H]2[C@H](CO)O1)NCc1ccc(Oc2ccccc2)cc1` yielded a viability index under setting [1] of 1.12 ± 0.15. Still for that read-out and setting: next, `Cc1noc(C)c1NC(=O)N(C)C[C@@H]1OCCCC[C@H](C)Oc2ccc(NC(=O)Nc3ccc(C(F)(F)F)cc3)cc2C(=O)N([C@@H](C)CO)C[C@H]1C`: 1.08 ± 0.089; `CN1C(=O)c2cc(NC(=O)Cc3cccs3)ccc2OC[C@@H]2O[C@@H](CC(=O)N[C@H]3CCN(Cc4ccccc4)C3)CC[C@@H]21`: 1.12 ± 0.064; `Cc1cc(C(=O)Nc2cccc3c2O[C@H](CN(C)C)[C@@H](C)CN([C@H](C)CO)C3=O)n(C)n1`: 1.03 ± 0.024. Under setting [1], `O=C(O)[C@H]1[C@H](CO)[C@H]2Cn3c(ccc(/C=C/c4ccccc4)c3=O)[C@H]2N1Cc1ccc2c(c1)OCO2` had a viability index of 0.93 ± 0.002. The molecule `CO[C@@H](C(=O)N(C)C[C@@H]1OCc2ccccc2-c2ccccc2C(=O)N([C@H](C)CO)C[C@H]1C)c1ccccc1` gave a viability index under setting [1] of 0.961 ± 0.13. Regarding `C[C@@H]1CN([C@@H](C)CO)C(=O)c2c(c3ccccc3n2C)-c2ccccc2CO[C@@H]1CN(C)S(=O)(=O)c1ccc([N+](=O)[O-])cc1`, under setting [1], the viability index turned out to be 0.998 ± 0.098.

For the origin of these results see the supplement of paper PMC4723716.
